Experimental data reported in US20200231694A1, “PHARMACEUTICAL COMBINATIONS COMPRISING AN ANTI-BST-1 ANTIBODY AND A CYTIDINE ANALOGUE” (BERLIN-CHEMIE AG, priority 2017, published 2020).

B1: BST1_A2: anti-BST1 monoclonal antibody, VH SEQ ID NO: 2, VK SEQ ID NO: 4; heavy/light chain SEQ ID NOs: 74 and 76 (antibody)
heavy: QVQLVQSGAEVKKPGASVKVSCKASGYSFIEYTINWVRQAPGQGLEWIGNIDPYYGTTYYNQMFTGRATLTVDTSISTAYMELSRLRSDDTAVYYCARGSAWFPYWGQGTLVTVSS[sequence of human IgG1 constant region not given]
light: DIQMTQSPSSLSASVGDRVTITCSASSSVTYMYWYQQKPGKAPKLLIYDTSNLASGVPSRFSGSGSGTDYTLTISSLQPEDFATYYCQQWSNYPLTFGQGTKVEIKRTVAAPSVFIFPPSDEQLKSGTASVVCLLNNFYPREAKVQWKVDNALQSGNSQESVTEQDSKDSTYSLSSTLTLSKADYEKHKVYACEVTHQGLSSPVTKSFNRGEC
modifications: Humanized heavy chain; Humanized light chain
B2: BST1_A2 NF: Non-Fucosylated anti-BST1 antibody derived from parental BST1_A2 (antibody)
heavy: B1 heavy
light: B1 light

Tests used:
[1] = test system: A549 cells; assay: MabZAP internalization assay, A549 cells; format: cell-based; details: compared to anti-human IgG isotype control
Protocol: (§1) Internalization of BST1_A1 and BST1_A2 by H226 and A549 were investigated using a MabZap assay. […] (Advanced Targeting System, San Diego, Calif., IT-22-100). First, BST1 Fab was bound to the surface of the cells. Then, the MabZAP antibodies were bound to the primary antibodies. Next, the MabZAP complex was internalized by the cells.
(§2) The MabZAP assay was conducted as follows. Each of the cells was seeded at a density of 5×10^3 cells per well. The anti-BST1 monoclonal antibody or an isotype control human IgG was serially diluted then added to the cells and incubated for 15 min at 25° C. The MabZAP was then added and incubated for 72 hr at 37° C. Cell viability in the plates was detected by CellTiter-Glo® Luminescent Cell Viability Assay kit (Promega, G7571) and the plates were read and analysed using Promega Glomax. Cell death was proportional to the concentration of anti-BST1 monoclonal antibodies.

[2] = test system: BST1-expressing A549 cells; assay: Antibody-dependent cellular cytotoxicity (LDH release), A549 cells; format: cell-based, human; details: for eliciting ADCC: BST1-expressing A549 cells, with effector cells
Protocol: (§3) Firstly 25 μl of parental and Non-Fucosylated anti-BST1 antibodies (BST1_A2 and BST1_A2 NF) at concentrations ranging from 10 nm/L to 0.1 nm/L were added to separate wells of a v bottom 96 well plate along with 50 μl of BST1-expressing A549 and U937 cells. 25 μl of Effector cells was then added to the wells to yield final effector: target (E:T) ratio of 10:1 and 25:1. The plate was then gently spun at 1000 rpm for 2 minutes, afterwhich it was incubated for 4 hrs in 37° C., 5% CO2 incubator. At 3 hrs post incubation, 10 μl of lysis solution was added to each of the wells containing BST1-expressing cells alone to measure maximum LDH release, and one set of wells containing media alone for volume correction control.
(§4) After the incubation, the cells were spun gently at 1000 rpm for 2 minutes, afterwhich 50 μl of supernatant was transferred to a flat bottom 96 well plate. Using the CytoTox 96® Non-Radioactive Cytotoxicity Assay available from Promega (Cat #: G1780), kit components were reconstituted according to manufacturer's specifications and 50 μl of the substrate mix was then added to each well. The plate was then covered and left to incubate for 30 minutes at 25° C. protected from light. Following this, 50 μl of Stop Solution was added to each well and the absorbance was recorded at 490 nm using the varioskan plate reader.

[3] = test system: lymphoblasts from patients with AML; assay: Flow cytometry binding to AML blasts from patients; design: species or system human; details: blood from 20 AML patients
Protocol: (§5) The specificity of antibodies against the BST1 selected in Example 2 was tested by flow cytometry. To test the ability of the antibodies to bind to the cell surface BST1 protein, the antibodies were incubated with the BST1-expressing cells, A549 and H226, from human lung adenocarcinoma and human lung squamous carcinoma, respectively. Cells were washed in FACS buffer (DPBS, 2% FBS), centrifuged and resuspended in 100 μl of the diluted primary BST1 antibody (also diluted in FACS buffer). The antibody-A549 complex was incubated on ice for 60 min and then washed twice with FACS buffer as described above. The cell-antibody pellet was resuspended in 100 μl of the diluted secondary antibody (also diluted in FACS buffer) and incubated on ice for 60 min on ice. The pellet was washed as before and resuspended in 200 μl FACS buffer. The samples were loaded onto the BD FACScanto II flow sytometer and the data analyzed using the BD FACSdiva software.
The ability of BST_A2 to bind to lymphoblasts from patients with AML was tested by Flow Cytometry Analysis. Blood was taken from 20 AML patients.

[4] = test system: BST1-expressing U937 cells; assay: Antibody-dependent cellular cytotoxicity (LDH release), U937 cells; format: cell-based; details: for eliciting ADCC: BST1-expressing U937 cells, with effector cells; for killing (ADCC): U937 cells, 1 nmol/L antibody
Protocol: as §3, §4

[5] = test system: H226 cells; assay: MabZAP internalization assay, H226 cells; format: cell-based; details: compared to anti-human IgG isotype control
Protocol: as §1, §2

[6] = biological target: T1, cell surface BST1 protein (Homo sapiens, UniProt Q10588); assay: Flow cytometry binding of anti-BST1 antibodies to BST1-expressing cells; details: A549 and H226 cells
T1 construct: the antibodies were incubated with the BST1-expressing cells, A549 and H226, from human lung adenocarcinoma and human lung squamous carcinoma; endogenous in cells; host or cells: A549 (human lung adenocarcinoma) and H226 (human lung squamous carcinoma)
T1 sequence (Q10588 33-293): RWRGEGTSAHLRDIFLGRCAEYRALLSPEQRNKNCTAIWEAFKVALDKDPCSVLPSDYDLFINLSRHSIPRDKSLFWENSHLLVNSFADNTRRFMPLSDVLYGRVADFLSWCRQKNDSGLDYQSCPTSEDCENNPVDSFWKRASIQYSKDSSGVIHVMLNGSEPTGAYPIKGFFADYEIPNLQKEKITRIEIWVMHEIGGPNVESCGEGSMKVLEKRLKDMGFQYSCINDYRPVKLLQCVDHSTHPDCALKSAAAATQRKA
Protocol: as §5

Row | Molecule | internalization (MabZAP) [1] | eliciting ADCC [2] | AML patients whose AML blasts were bound [3] | eliciting ADCC [4] | killing (ADCC) [4] | internalization (MabZAP) [5] | binding to cell-surface human BST1 [6] | killing (ADCC) ([2]; A549 cells, 10 nmol/L antibody)
1 | B1 | efficiently internalized | capable of eliciting ADCC | approx. 80% | capable of eliciting ADCC | approximately 20% | efficiently internalized | bound effectively | –
2 | B2 | – | capable of eliciting ADCC | – | capable of eliciting ADCC | approximately 45% | – | – | approximately 45%
